Reference: the supplement of paper PMC7125110
± gives the standard error. This sample is rich in variants without activity.

B1: glmS ribozyme (parent)
chain: AUAAAAGCGCCAGAACUACAGAAAUGUAGUUGACGAGGAGGAGGUUUAUCGAAUUUUCGGCGGAUGCCUCCAAA

Experiments:
Conditions in all cases: with glucosamine-6-phosphate
glucosamine-6-phosphate [1] = variants of: B1; assay: self-cleavage kobs at 40 uM GlcN6P; higher = faster cleavage; RNA array
Method in brief: (§1)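 Glucosamine-6-phosphate (40 μM to 10 mM) in HEPES/KCl/Mg(OAc)2 buffer was flowed over sequenced MiSeq chips, and tiles were imaged over ~14 h. Barcoded ribozyme variants there had been transcribed in situ by E. coli RNA polymerase and were tracked through a hybridised Cy3 probe at 37 °C. One- or two-exponential decay fits to per-tile medians, normalised to baseline and to non-cleaving reference variants, gave kobs. kcat and KM came from weighted Michaelis–Menten fits across concentrations.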

glucosamine-6-phosphate [2] = variants of: B1; assay: self-cleavage kobs at 640 uM GlcN6P; higher = faster cleavage; RNA array
Method in brief: as §1

glucosamine-6-phosphate [3] = variants of: B1; assay: self-cleavage kobs at 160 uM GlcN6P; higher = faster cleavage; RNA array
Method in brief: as §1

glucosamine-6-phosphate [4] = variants of: B1; assay: self-cleavage kobs at 2500 uM GlcN6P; higher = faster cleavage; RNA array
Method in brief: as §1

glucosamine-6-phosphate [5] = variants of: B1; assay: self-cleavage kobs at 10000 uM GlcN6P; higher = faster cleavage; RNA array
Method in brief: as §1

## A36C A39G
glucosamine-6-phosphate [1]
  self-cleavage kobs at 40 uM GlcN6P: < 1e-05 s⁻¹
glucosamine-6-phosphate [2]
  self-cleavage kobs at 640 uM GlcN6P: < 1e-05 s⁻¹
glucosamine-6-phosphate [3]
  self-cleavage kobs at 160 uM GlcN6P: < 1e-05 s⁻¹
glucosamine-6-phosphate [4]
  self-cleavage kobs at 2500 uM GlcN6P: < 1e-05 s⁻¹
glucosamine-6-phosphate [5]
  self-cleavage kobs at 10000 uM GlcN6P: < 1e-05 s⁻¹

## A36C A53C
glucosamine-6-phosphate [1]
  self-cleavage kobs at 40 uM GlcN6P: < 1e-05 s⁻¹
glucosamine-6-phosphate [2]
  self-cleavage kobs at 640 uM GlcN6P: < 1e-05 s⁻¹
glucosamine-6-phosphate [3]
  self-cleavage kobs at 160 uM GlcN6P: < 1e-05 s⁻¹
glucosamine-6-phosphate [4]
  self-cleavage kobs at 2500 uM GlcN6P: < 1e-05 s⁻¹
glucosamine-6-phosphate [5]
  self-cleavage kobs at 10000 uM GlcN6P: < 1e-05 s⁻¹

## A36C C58A U65A C68G
glucosamine-6-phosphate [1]
  self-cleavage kobs at 40 uM GlcN6P: 0.000139 ± 4.3e-05 s⁻¹

## A36C C61G
glucosamine-6-phosphate [1]
  self-cleavage kobs at 40 uM GlcN6P: < 1e-05 s⁻¹
glucosamine-6-phosphate [4]
  self-cleavage kobs at 2500 uM GlcN6P: < 1e-05 s⁻¹

## A36C G38C A48U
glucosamine-6-phosphate [1]
  self-cleavage kobs at 40 uM GlcN6P: < 1e-05 s⁻¹
glucosamine-6-phosphate [4]
  self-cleavage kobs at 2500 uM GlcN6P: < 1e-05 s⁻¹

## A36C G51C G59A C68A
glucosamine-6-phosphate [1]
  self-cleavage kobs at 40 uM GlcN6P: < 1e-05 s⁻¹
glucosamine-6-phosphate [5]
  self-cleavage kobs at 10000 uM GlcN6P: < 1e-05 s⁻¹

## A36C U45C U46G
glucosamine-6-phosphate [1]
  self-cleavage kobs at 40 uM GlcN6P: < 1e-05 s⁻¹

## A36C U45G U69G
glucosamine-6-phosphate [1]
  self-cleavage kobs at 40 uM GlcN6P: < 1e-05 s⁻¹
glucosamine-6-phosphate [4]
  self-cleavage kobs at 2500 uM GlcN6P: < 1e-05 s⁻¹

## A36G A39U G44C
glucosamine-6-phosphate [1]
  self-cleavage kobs at 40 uM GlcN6P: < 1e-05 s⁻¹
glucosamine-6-phosphate [5]
  self-cleavage kobs at 10000 uM GlcN6P: < 1e-05 s⁻¹

## A36G A42G
glucosamine-6-phosphate [1]
  self-cleavage kobs at 40 uM GlcN6P: < 1e-05 s⁻¹
glucosamine-6-phosphate [2]
  self-cleavage kobs at 640 uM GlcN6P: < 1e-05 s⁻¹
glucosamine-6-phosphate [3]
  self-cleavage kobs at 160 uM GlcN6P: < 1e-05 s⁻¹

## A36G A48U
glucosamine-6-phosphate [1]
  self-cleavage kobs at 40 uM GlcN6P: < 1e-05 s⁻¹
glucosamine-6-phosphate [2]
  self-cleavage kobs at 640 uM GlcN6P: < 1e-05 s⁻¹
glucosamine-6-phosphate [3]
  self-cleavage kobs at 160 uM GlcN6P: < 1e-05 s⁻¹
glucosamine-6-phosphate [4]
  self-cleavage kobs at 2500 uM GlcN6P: < 1e-05 s⁻¹
glucosamine-6-phosphate [5]
  self-cleavage kobs at 10000 uM GlcN6P: < 1e-05 s⁻¹

## A36G C50G
glucosamine-6-phosphate [1]
  self-cleavage kobs at 40 uM GlcN6P: 3.66e-05 ± 1.5e-05 s⁻¹

## A36G C50U
glucosamine-6-phosphate [1]
  self-cleavage kobs at 40 uM GlcN6P: < 1e-05 s⁻¹
glucosamine-6-phosphate [2]
  self-cleavage kobs at 640 uM GlcN6P: < 1e-05 s⁻¹
glucosamine-6-phosphate [3]
  self-cleavage kobs at 160 uM GlcN6P: < 1e-05 s⁻¹
glucosamine-6-phosphate [4]
  self-cleavage kobs at 2500 uM GlcN6P: < 1e-05 s⁻¹
glucosamine-6-phosphate [5]
  self-cleavage kobs at 10000 uM GlcN6P: < 1e-05 s⁻¹

## A36G G44C
glucosamine-6-phosphate [1]
  self-cleavage kobs at 40 uM GlcN6P: < 1e-05 s⁻¹
glucosamine-6-phosphate [5]
  self-cleavage kobs at 10000 uM GlcN6P: < 1e-05 s⁻¹

## A36G G62U
glucosamine-6-phosphate [1]
  self-cleavage kobs at 40 uM GlcN6P: < 1e-05 s⁻¹
glucosamine-6-phosphate [2]
  self-cleavage kobs at 640 uM GlcN6P: < 1e-05 s⁻¹
glucosamine-6-phosphate [4]
  self-cleavage kobs at 2500 uM GlcN6P: < 1e-05 s⁻¹
glucosamine-6-phosphate [5]
  self-cleavage kobs at 10000 uM GlcN6P: < 1e-05 s⁻¹

## A36G G63C
glucosamine-6-phosphate [1]
  self-cleavage kobs at 40 uM GlcN6P: < 1e-05 s⁻¹
glucosamine-6-phosphate [2]
  self-cleavage kobs at 640 uM GlcN6P: < 1e-05 s⁻¹
glucosamine-6-phosphate [5]
  self-cleavage kobs at 10000 uM GlcN6P: < 1e-05 s⁻¹

## A36G U49G
glucosamine-6-phosphate [1]
  self-cleavage kobs at 40 uM GlcN6P: < 1e-05 s⁻¹

## A36G U65A
glucosamine-6-phosphate [1]
  self-cleavage kobs at 40 uM GlcN6P: < 1e-05 s⁻¹
glucosamine-6-phosphate [2]
  self-cleavage kobs at 640 uM GlcN6P: < 1e-05 s⁻¹
glucosamine-6-phosphate [3]
  self-cleavage kobs at 160 uM GlcN6P: < 1e-05 s⁻¹
glucosamine-6-phosphate [4]
  self-cleavage kobs at 2500 uM GlcN6P: < 1e-05 s⁻¹
glucosamine-6-phosphate [5]
  self-cleavage kobs at 10000 uM GlcN6P: < 1e-05 s⁻¹

## A36U A53U G60A U69A
glucosamine-6-phosphate [1]
  self-cleavage kobs at 40 uM GlcN6P: < 1e-05 s⁻¹

## A36U G38C
glucosamine-6-phosphate [1]
  self-cleavage kobs at 40 uM GlcN6P: < 1e-05 s⁻¹
glucosamine-6-phosphate [2]
  self-cleavage kobs at 640 uM GlcN6P: < 1e-05 s⁻¹
glucosamine-6-phosphate [3]
  self-cleavage kobs at 160 uM GlcN6P: < 1e-05 s⁻¹
glucosamine-6-phosphate [4]
  self-cleavage kobs at 2500 uM GlcN6P: < 1e-05 s⁻¹
glucosamine-6-phosphate [5]
  self-cleavage kobs at 10000 uM GlcN6P: < 1e-05 s⁻¹

## A36U G38U U45C
glucosamine-6-phosphate [1]
  self-cleavage kobs at 40 uM GlcN6P: < 1e-05 s⁻¹

## A36U G44C
glucosamine-6-phosphate [1]
  self-cleavage kobs at 40 uM GlcN6P: < 1e-05 s⁻¹
glucosamine-6-phosphate [3]
  self-cleavage kobs at 160 uM GlcN6P: < 1e-05 s⁻¹
glucosamine-6-phosphate [4]
  self-cleavage kobs at 2500 uM GlcN6P: < 1e-05 s⁻¹
glucosamine-6-phosphate [5]
  self-cleavage kobs at 10000 uM GlcN6P: < 1e-05 s⁻¹

## A36U U46C
glucosamine-6-phosphate [1]
  self-cleavage kobs at 40 uM GlcN6P: < 1e-05 s⁻¹
glucosamine-6-phosphate [2]
  self-cleavage kobs at 640 uM GlcN6P: < 1e-05 s⁻¹
glucosamine-6-phosphate [3]
  self-cleavage kobs at 160 uM GlcN6P: < 1e-05 s⁻¹
